# Source: paper PMC4336329 (PLoS ONE, 2015)
# The campaign covered roughly 310,000 compounds. About 14,000 (4.5%) showed an effect of 50% or more. Effects have a minus sign here. The list shows a part of the results.
# Target: human ether-à-go-go-related gene (hERG) potassium channel (human, UniProt Q12809)
# Assay: primary screen, population patch clamp on CHO cells stably expressing hERG
# 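Note: peak tail current of the secondary pulse compared with the same well before compound.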
# Sequence of human ether-à-go-go-related gene (hERG) potassium channel (Q12809 whole entry, looked up): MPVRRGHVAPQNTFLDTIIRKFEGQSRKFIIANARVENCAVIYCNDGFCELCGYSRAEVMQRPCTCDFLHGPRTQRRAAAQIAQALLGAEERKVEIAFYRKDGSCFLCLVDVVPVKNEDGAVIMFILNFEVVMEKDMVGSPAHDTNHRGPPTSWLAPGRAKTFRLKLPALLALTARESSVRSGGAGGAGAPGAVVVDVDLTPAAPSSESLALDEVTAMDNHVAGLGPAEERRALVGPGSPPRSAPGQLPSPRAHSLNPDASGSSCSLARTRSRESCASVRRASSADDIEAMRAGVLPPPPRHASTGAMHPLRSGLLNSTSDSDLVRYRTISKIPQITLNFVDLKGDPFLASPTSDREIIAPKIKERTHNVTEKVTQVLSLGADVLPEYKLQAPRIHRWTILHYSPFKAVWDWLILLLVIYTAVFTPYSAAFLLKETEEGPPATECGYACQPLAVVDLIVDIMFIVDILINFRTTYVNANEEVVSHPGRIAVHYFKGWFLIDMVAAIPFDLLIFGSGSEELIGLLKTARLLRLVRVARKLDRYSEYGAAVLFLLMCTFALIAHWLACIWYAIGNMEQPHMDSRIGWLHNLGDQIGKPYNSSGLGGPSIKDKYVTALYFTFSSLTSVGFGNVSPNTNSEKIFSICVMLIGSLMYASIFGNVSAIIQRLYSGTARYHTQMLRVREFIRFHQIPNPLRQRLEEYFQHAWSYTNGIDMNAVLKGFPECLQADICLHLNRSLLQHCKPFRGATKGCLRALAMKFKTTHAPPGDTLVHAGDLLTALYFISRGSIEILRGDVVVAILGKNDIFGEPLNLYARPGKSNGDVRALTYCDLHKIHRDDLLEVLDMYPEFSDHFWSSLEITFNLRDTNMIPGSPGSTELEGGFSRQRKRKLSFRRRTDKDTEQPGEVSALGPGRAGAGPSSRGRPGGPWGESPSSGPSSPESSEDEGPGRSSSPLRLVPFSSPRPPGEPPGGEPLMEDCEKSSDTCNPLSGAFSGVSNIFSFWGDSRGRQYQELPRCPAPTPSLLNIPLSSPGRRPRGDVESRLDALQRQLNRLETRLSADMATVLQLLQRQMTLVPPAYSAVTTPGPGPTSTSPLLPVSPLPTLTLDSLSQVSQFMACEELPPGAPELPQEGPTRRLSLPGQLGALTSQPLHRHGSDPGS
row,Compound,"hERG current change (%, negative = inhibition) at 10uM"
1,CCOC(=O)CN1C(=O)c2ccccc2Sc2ncccc21,8.95%
2,CN1CCCC(OC(=O)c2cccc(Cl)c2)C1.Cl (centres unmarked),-17.5%
3,COc1ccc(-n2nc(C(=O)NCC(=O)Nc3cc(C)ccc3OC)c3ccccc3c2=O)c(OC)c1,10.6%
4,COc1nc(Nc2nc3ccccc3c(=O)[nH]2)nc2ccc(C)cc12,5.71%
5,COc1cccc(OCc2cc(C(=O)N(C)Cc3nc(C)cs3)no2)c1,-8.13%
6,CC(NC(=O)CCc1c[nH]c2ccccc12)c1ccccc1 (centres unmarked),24.4%
7,COC(=O)[C@@H](NC(=O)Nc1ccc(C(C)=O)cc1)C(C)C,6.95%
8,CC1(C)Cc2ccccc2-c2nc(NN)[nH]c(=O)c21,12.8%
9,S=C(NC1CCCCC1)NN1CCOCC1,7.4%
10,CC(=O)c1cccc(S(=O)(=O)NCC2CCCCC2)c1,-42.5%
11,O=C(CSc1ncn[nH]1)Nc1ccccc1-c1ccccc1,5.85%
12,CCC(C)c1ccc(NC(=O)C/C(C)=N/NC(=O)c2cnccn2)cc1 (centres unmarked),-17.2%
13,COc1cc(CN2CCN(C(=O)CC(C)C)CC2)c([N+](=O)[O-])cc1OC,8.77%
14,O=C(CN1CCC(n2nnc3cc(F)ccc32)CC1)N1CCCc2ccccc21,-64.2%
15,COc1ccc(-c2nc(CCNS(=O)(=O)c3ccc4c(c3)OCCO4)cs2)cc1,-29.4%
16,Cl.Cn1nnnc1SCCNCc1cc(Cl)ccc1OCc1ccccc1,-42.7%
17,O=C(Nc1ccc(-n2nncc2-c2ccco2)cc1)c1cccc(F)c1,-5.09%
18,O=C(CSc1nnnn1C1CCCC1)Nc1ccc2c(c1)OCO2,0.109%
19,c1ccc(CCN2CN(CCCN3CCOCC3)c3nc4ccccc4n3C2)cc1,-39.8%
20,O=C(Nc1ccon1)Nc1ccc(F)cc1F,6.68%
21,COc1ccc(/C=N/N2CCN(c3ccccc3)CC2)cc1Br,16%
22,O=C(Nc1cc(Cl)cc(Cl)c1)C(c1ccccc1)N1CCCCC1 (centres unmarked),-0.326%
23,NC(=O)Nc1ccc(Oc2ncc(C(F)(F)F)cc2Cl)cc1,15.2%
24,CC(C)c1nc2ccccc2c2nnc(SCC(=O)NCc3ccco3)n12,-9.3%
25,CCCN(CCC)CC(O)COc1ccc2c(c1)OCO2.Cl (centres unmarked),-28.8%
26,CCCCCn1c(CN2CCN(C)CC2)nc2c1c(=O)n(C)c(=O)n2C,-33.1%
